{
  "source": "the supplement of paper PMC8728848",
  "experiment_in_all_cases": "glycan array binding signal (z-score within array); higher = stronger binding",
  "details_in_all_cases": "glycan notation: IUPAC condensed, linker removed",
  "key": {"Fuc(a1-2)Gal": {"biological_target": "Fuc(a1-2)Gal", "summary_of_the_method": "(§1)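 The binding signal is a Z-score computed within each array and averaged over linkers. Arrays of the same protein sequence at different concentrations or buffers were also averaged together. Data originate from 3228 arrays in the Consortium for Functional Glycomics database, kept only where the protein sequence was available.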"}, "Fuc(a1-2)Gal(b1-3)GalNAc": {"biological_target": "Fuc(a1-2)Gal(b1-3)GalNAc", "summary_of_the_method": "as §1"}, "[1]": {"biological_target": "Fuc(a1-2)Gal(b1-3)GalNAc(a1-3)[Fuc(a1-2)]Gal(b1-4)Glc", "summary_of_the_method": "as §1"}, "[2]": {"biological_target": "Fuc(a1-2)Gal(b1-3)GalNAc(a1-3)[Fuc(a1-2)]Gal(b1-4)GlcNAc", "summary_of_the_method": "as §1"}, "[3]": {"biological_target": "Fuc(a1-2)Gal(b1-3)GalNAc(b1-3)Gal", "summary_of_the_method": "as §1"}, "[4]": {"biological_target": "Fuc(a1-2)Gal(b1-3)GalNAc(b1-3)Gal(a1-4)Gal(b1-4)Glc", "summary_of_the_method": "as §1"}, "[5]": {"biological_target": "Fuc(a1-2)Gal(b1-3)GalNAc(b1-4)[Neu5Ac(a2-3)]Gal(b1-4)Glc", "summary_of_the_method": "as §1"}, "Fuc(a1-2)Gal(b1-3)GlcNAc": {"biological_target": "Fuc(a1-2)Gal(b1-3)GlcNAc", "summary_of_the_method": "as §1"}, "[6]": {"biological_target": "Fuc(a1-2)Gal(b1-3)GlcNAc(b1-2)Man(a1-3)[Fuc(a1-2)Gal(b1-3)GlcNAc(b1-2)Man(a1-6)]Man(b1-4)GlcNAc(b1-4)GlcNAc", "summary_of_the_method": "as §1"}, "[7]": {"biological_target": "Fuc(a1-2)Gal(b1-3)GlcNAc(b1-2)Man(a1-3)[Fuc(a1-2)Gal(b1-3)GlcNAc(b1-2)Man(a1-6)]Man(b1-4)GlcNAc(b1-4)[Fuc(a1-6)]GlcNAc", "summary_of_the_method": "as §1"}, "[8]": {"biological_target": "Fuc(a1-2)Gal(b1-3)GlcNAc(b1-3)Gal(b1-4)Glc", "summary_of_the_method": "as §1"}, "[9]": {"biological_target": "Fuc(a1-2)Gal(b1-3)GlcNAc(b1-3)GalNAc", "summary_of_the_method": "as §1"}, "[10]": {"biological_target": "Fuc(a1-2)Gal(b1-3)GlcNAc(b1-3)[Fuc(a1-2)Gal(b1-3)GlcNAc(b1-6)]GalNAc", "summary_of_the_method": "as §1"}, "[11]": {"biological_target": "Fuc(a1-2)Gal(b1-3)GlcNAc(b1-3)[Gal(b1-4)GlcNAc(b1-6)]Gal(b1-4)Glc", "summary_of_the_method": "as §1"}, "[12]": {"biological_target": "Fuc(a1-2)Gal(b1-3)GlcNAc(b1-3)[Neu5Ac(a2-6)Gal(b1-4)GlcNAc(b1-6)]Gal(b1-4)Glc", "summary_of_the_method": "as §1"}, "[13]": {"biological_target": "Fuc(a1-2)Gal(b1-3)GlcNAc6S", "summary_of_the_method": "as §1"}, "[14]": {"biological_target": "Fuc(a1-2)Gal(b1-3)[Fuc(a1-4)]GlcNAc", "summary_of_the_method": "as §1"}, "[15]": {"biological_target": "Fuc(a1-2)Gal(b1-3)[Fuc(a1-4)]GlcNAc(b1-2)Man(a1-3)[Fuc(a1-2)Gal(b1-3)[Fuc(a1-4)]GlcNAc(b1-2)Man(a1-3)]Man(b1-4)GlcNAc(b1-4)GlcNAc", "summary_of_the_method": "as §1"}, "[16]": {"biological_target": "Fuc(a1-2)Gal(b1-3)[Fuc(a1-4)]GlcNAc(b1-2)Man(a1-3)[Fuc(a1-2)Gal(b1-3)[Fuc(a1-4)]GlcNAc(b1-2)Man(a1-6)]Man(b1-4)GlcNAc(b1-4)[Fuc(a1-6)]GlcNAc(b1-4)[Fuc(a1-6)]GlcNAc", "summary_of_the_method": "as §1"}, "[17]": {"biological_target": "Fuc(a1-2)Gal(b1-3)[Fuc(a1-4)]GlcNAc(b1-3)[Fuc(a1-3)[Gal(b1-4)]GlcNAc(b1-6)]Gal(b1-4)Glc", "summary_of_the_method": "as §1"}, "[18]": {"biological_target": "Fuc(a1-2)Gal(b1-3)[Fuc(a1-4)]GlcNAc(b1-3)[Gal(b1-4)GlcNAc(b1-6)]Gal(b1-4)Glc", "summary_of_the_method": "as §1"}, "Fuc(a1-2)Gal(b1-4)Glc": {"biological_target": "Fuc(a1-2)Gal(b1-4)Glc", "summary_of_the_method": "as §1"}, "Fuc(a1-2)Gal(b1-4)Glc6S": {"biological_target": "Fuc(a1-2)Gal(b1-4)Glc6S", "summary_of_the_method": "as §1"}, "Fuc(a1-2)Gal(b1-4)GlcNAc": {"biological_target": "Fuc(a1-2)Gal(b1-4)GlcNAc", "summary_of_the_method": "as §1"}, "[19]": {"biological_target": "Fuc(a1-2)Gal(b1-4)GlcNAc(b1-2)Man", "summary_of_the_method": "as §1"}, "[20]": {"biological_target": "Fuc(a1-2)Gal(b1-4)GlcNAc(b1-2)Man(a1-3)[Fuc(a1-2)Gal(b1-4)GlcNAc(b1-2)Man(a1-6)]Man(b1-4)GlcNAc(b1-4)GlcNAc", "summary_of_the_method": "as §1"}, "[21]": {"biological_target": "Fuc(a1-2)Gal(b1-4)GlcNAc(b1-2)Man(a1-3)[Fuc(a1-2)Gal(b1-4)GlcNAc(b1-2)Man(a1-6)]Man(b1-4)GlcNAc(b1-4)[Fuc(a1-6)]GlcNAc", "summary_of_the_method": "as §1"}, "[22]": {"biological_target": "Fuc(a1-2)Gal(b1-4)GlcNAc(b1-2)[Fuc(a1-2)Gal(b1-4)GlcNAc(b1-4)]Man(a1-3)[Fuc(a1-2)Gal(b1-4)GlcNAc(b1-2)Man(a1-6)]Man(b1-4)GlcNAc(b1-4)GlcNAc", "summary_of_the_method": "as §1"}, "[23]": {"biological_target": "Fuc(a1-2)Gal(b1-4)GlcNAc(b1-3)Gal(b1-4)GlcNAc", "summary_of_the_method": "as §1"}, "[24]": {"biological_target": "Fuc(a1-2)Gal(b1-4)GlcNAc(b1-3)Gal(b1-4)GlcNAc(b1-2)Man(a1-3)[Fuc(a1-2)Gal(b1-4)GlcNAc(b1-3)Gal(b1-4)GlcNAc(b1-2)Man(a1-6)]Man(b1-4)GlcNAc(b1-4)GlcNAc", "summary_of_the_method": "as §1"}},
  "note": "Some of the results follow.",
  "data": [
    {"binder": "PX14379A-bvu-539-28-539 (Bacteroides vulgatus) (protein) EPYSEIIEEDYVPTEADEIALLATTYSQLRFVMDWYGLFDLQEESGDVIVTPTRPNGWDDGGTYKQMHKHTWDNQQGQPQSIWDYCYKGIANANKILKRADEGFFTEESKPKVVAEVKGVRALWYSILCDTHGNIPIQTSFSEEVPVQSTRKQVFDFIINELKEVMPNLPTEVNKSTYGRLTQWGAKCLMARMYLNAGVYTGTPMWNECLEQCNDIINSGLFSLETNYTDIFKTENSGCVETIFAIPYDEVYNEGDNNGPVFGAHMKFLSSNSRKVFNMQTTPWGGSAANPQFINSYDPDDMRLKYTWLQGDQYSPDGVLITTFPNKLPSIYKTDTDDGYRVGKYEIKVGAKSLLSNDFPYFRYTEVLLMKAECLLRLGQNETEAAHIVSQIRERAFRESAHPEKATVDAAWLKGDTHINYGTLDEKGQIDDAGNTEVVELGGLYDEWGWEFAAEARRRTDMIRFGTYQKKSWFNHTPTANDLNGNSILFPIHLDHLNTNPNLQQNPGYAGK", "values": [
      {"measurement": "glycan array binding signal (z-score)", "setting": "Fuc(a1-2)Gal", "value": -0.067},
      {"measurement": "glycan array binding signal (z-score)", "setting": "Fuc(a1-2)Gal(b1-3)GalNAc", "value": -0.448},
      {"measurement": "glycan array binding signal (z-score)", "setting": "[1]", "value": -0.428},
      {"measurement": "glycan array binding signal (z-score)", "setting": "[2]", "value": -0.426},
      {"measurement": "glycan array binding signal (z-score)", "setting": "[3]", "value": -0.259},
      {"measurement": "glycan array binding signal (z-score)", "setting": "[4]", "value": -0.301},
      {"measurement": "glycan array binding signal (z-score)", "setting": "[5]", "value": -0.399},
      {"measurement": "glycan array binding signal (z-score)", "setting": "Fuc(a1-2)Gal(b1-3)GlcNAc", "value": -0.263},
      {"measurement": "glycan array binding signal (z-score)", "setting": "[6]", "value": 8.31},
      {"measurement": "glycan array binding signal (z-score)", "setting": "[7]", "value": -0.157},
      {"measurement": "glycan array binding signal (z-score)", "setting": "[8]", "value": -0.301},
      {"measurement": "glycan array binding signal (z-score)", "setting": "[9]", "value": -0.144},
      {"measurement": "glycan array binding signal (z-score)", "setting": "[10]", "value": 0.182},
      {"measurement": "glycan array binding signal (z-score)", "setting": "[11]", "value": -0.169},
      {"measurement": "glycan array binding signal (z-score)", "setting": "[12]", "value": -0.4},
      {"measurement": "glycan array binding signal (z-score)", "setting": "[13]", "value": -0.245},
      {"measurement": "glycan array binding signal (z-score)", "setting": "[14]", "value": -0.196},
      {"measurement": "glycan array binding signal (z-score)", "setting": "[15]", "value": -0.151},
      {"measurement": "glycan array binding signal (z-score)", "setting": "[16]", "value": -0.22},
      {"measurement": "glycan array binding signal (z-score)", "setting": "[17]", "value": -0.183},
      {"measurement": "glycan array binding signal (z-score)", "setting": "[18]", "value": -0.283},
      {"measurement": "glycan array binding signal (z-score)", "setting": "Fuc(a1-2)Gal(b1-4)Glc", "value": -0.378},
      {"measurement": "glycan array binding signal (z-score)", "setting": "Fuc(a1-2)Gal(b1-4)Glc6S", "value": -0.232},
      {"measurement": "glycan array binding signal (z-score)", "setting": "Fuc(a1-2)Gal(b1-4)GlcNAc", "value": -0.416},
      {"measurement": "glycan array binding signal (z-score)", "setting": "[19]", "value": -0.106},
      {"measurement": "glycan array binding signal (z-score)", "setting": "[20]", "value": 0.892},
      {"measurement": "glycan array binding signal (z-score)", "setting": "[21]", "value": 0.338},
      {"measurement": "glycan array binding signal (z-score)", "setting": "[22]", "value": -0.064},
      {"measurement": "glycan array binding signal (z-score)", "setting": "[23]", "value": -0.361},
      {"measurement": "glycan array binding signal (z-score)", "setting": "[24]", "value": 2.29}
    ]}
  ]
}
